# Reference: ChEMBL document CHEMBL4888484, “Replenishing the malaria drug discovery pipeline: Screening and hit evaluation of the MMV Hit Generation Library 1 (HGL1) against asexual blood stage Plasmodium falciparum ,using a nano luciferase reporter read-out” (2022)
# About 540 (0.36%) of roughly 150,000 compounds showed an effect of 50% or more. The list shows a part of the results.
# System: Plasmodium falciparum
# Assay: Primary screen in NF54 nanoGlo assay, in single point, at 2uM, 72h; a lower Z score goes with more inhibition
# Type: functional, Erythrocyte
# Details: timepoint 72 hour
SMILES,% Inhibition,Z score
O=C(c1cnc(O)c(Cl)c1)N1CC[C@H](Oc2cnc3ccccc3n2)C1,-1%,0.24
O[C@@H]1C[C@@H](c2nc(C3CC3)no2)N(C2CCOCC2)C1,-8%,1.01
CCN1CCN([C@@H](c2nnc(-c3ccccc3)o2)c2ccccc2F)CC1,-15%,1.64
O=c1[nH]c(-c2cccnc2)nc2ccc(-c3ccccc3)cc12,-6%,0.83
Cn1nccc1[C@@H]1CN(C(=O)c2ccc3c(c2)-c2ccccc2C3)C[C@H]1N,-8%,1.16
COC[C@@H]1CN(S(=O)(=O)c2ccc3c(c2)CCCC3)C[C@H]1C(N)=O,-5%,0.75
Cc1sc(-c2nnc(C(C)C)o2)cc1NC(=O)c1ccccc1,-11%,1.03
CCN(CC(=O)Nc1ccc2c(c1)OCCO2)C(=O)C1=COCCO1,0%,0.04
O=C1OC2CC1N(C(=O)Cc1ccccc1Cl)C2 (stereo unspecified),-3%,0.47
COc1ccc(CN2C(=O)c3ccccc3C2=O)cc1C(=O)NC1CCN2CCCCC12 (stereo unspecified),-4%,0.5
Cc1ncncc1C(=O)N(Cc1cccnc1)C1CCCCC1,-5%,0.91
Cc1ccc(NC(=O)[C@H]2CC23CCCCC3)cn1,-6%,1.08
Fc1ccc(CN[C@H]2CCCOC2)nc1,-3%,0.48
CC(C)(C(=O)N1CCCc2n[nH]cc21)C1CCC(O)CC1 (stereo unspecified),-6%,1.23
Cc1c(Cl)cccc1N1C(=O)c2cc3occc3n2C[C@@]1(C)C(=O)NC1CCCCCC1,-20%,3.68
COc1ccc([C@H](C)NCCc2nc(C(C)C)no2)c(F)c1,-5%,0.76
CCO[C@H]1C[C@@H](O)C12CCN(C(=O)c1ccncc1)CC2,-6%,1.12
Cc1cnc(CNC(=O)CC(=O)Nc2cc(Cl)ccc2C)cn1,-20%,1.89
O=C(O)C[C@@H]1CCN(C(=O)NCc2ccccc2)C[C@@H]1CC1=NCCc2ccccc21,-8%,1.17
O=S(=O)(Nc1cc(S(=O)(=O)N2CCCC2)ccc1OCC(F)(F)F)c1ccc2c(c1)OCCO2,-5%,0.74
CC(C)(C)OC(=O)N1CCc2ncc(NC3CCOCC3)cc2C1,-2%,0.38
CC(C)(N)COc1ncccc1Br,-15%,2.09
Cc1cc(-c2cccc3c2OCC3)c(=O)[nH]n1,1%,-0.21
